Assay results as given in the RNAGym collection of RNA variant scans (doi:10.1093/nar/gkz1192).
Read counts are not given, so values of variants with three or more changes are uncertain.

B1: CPEB3 Ribozyme (parent)
chain: UAACAGGGGGCCACAGCAGAAGCGUUCACGUCGCAGCCCCUGUCAGAUUCUGGUGAAUCUGCGAAUUCUGCUGUAUAUCUC

Variants of: B1
Experiment: self-cleavage, relative activity (ratio to wild type); higher = more cleavage; in vitro, sequencing
Method in brief: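 Relative activity compares each variant's cleaved/total read fraction with that of the unmutated ribozyme. To get these fractions, barcoded CPEB3 ribozyme libraries from rounds of error-prone PCR were transcribed with T7 RNA polymerase for 5 hours at 37°C and then given 15 min of DNase I treatment before EDTA was added. The RNAs were reverse transcribed with template switching and sequenced on Illumina, and DNA sequencing linked barcodes to variants. A minimum of 5 reads applied, and three batches were averaged.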

| Variant | self-cleavage |
| --- | --- |
| A13U G24C U31A U48C A64G U69A | 0.07 |
| A15G A20U U31C C34U | 0.16 |
| C14A A18G U25C | 0.41 |
| A13U U25C U31C A47G U67A U78C | 0.05 |
| C14U A21U U60C U69A A77G | 0.12 |
| C14U U25A A65G | 0.36 |
| A15C C29U U48C U72C U76A | 0.31 |
| A15G A20G U26C U41A A56G | 0.74 |
| C14G A15C A20G C29U A47G U51C | 0.14 |
| A13U U31C U60C U67C U78C | 0.19 |
| A15G A21G U48C A75U | 0.34 |
| A13U U41A U51A A56U A64U | 0.05 |
| A13U C29U U41G | 0.17 |
| A15C U48C U51A U60C G63A U69C U72C | 0.14 |
| A15C A35G A77U | 1.15 |
| A15G A21G U49A A65G U72A | 0.13 |
| C14G A57G U67C | 0.14 |
| A13U U41A A56U A64G U72C A77G | 0.05 |
| A13U U43C U60A U78C | 0.32 |
| A15C G63C U67C U72A | 0.16 |
| A15G A20G U31C U66C U72A U74A | 0.11 |

| Variant | self-cleavage |
| --- | --- |
| A13U U25C U49A A56G | 0.07 |
| A13U U26A C38G U51G A57G U74A A77G | 0.04 |
| A13U U48C U66C G73U A77U | 0.48 |
| A13U C34G U41C | 0.12 |
| A15G A20G U60C | 0.14 |
| A15C A18U G19U U54C A64G | 0.09 |
| A15G A20U U41A | 0.27 |
| A13U A65G U67A | 0.37 |
| A13U U31C A35G A65U | 0.45 |
| A15G A35G U69A U80C | 0.24 |
| A13U U66C U74C | 0.28 |
| A13U C17U A21G A35U A56G U67C A77G | 0.05 |
| A13U U31A C68U U80C | 0.58 |
| C14U A18G A28C U60C | 0.08 |
| A15G A18U A28G A35G | 0.24 |
| A13U U31C U43C G63A | 0.23 |
| A13U A45G U49C U66C U74A | 0.15 |
| C14U C32U G55U | 0.26 |
| A13U U54C A56U U80C | 0.76 |
| A15G A28G U41C U66C U72A U76A | 0.21 |
| A13U C59G C62A A65G U80C | 0.1 |

| Variant | self-cleavage |
| --- | --- |
| A13U C27U A28G A35U A45C U54A | 0.05 |
| A15G A28G A77G | 0.6 |
| A13U A35U U51A U60C | 0.22 |
| A13U G16A U25C U60C A65G | 0.13 |
| A13U U60C U74C | 0.49 |
| A13U U60C U74A | 0.81 |
| A15G A21G A28G U67C A75U U78C | 0.03 |
| A15C G16U U26A U41C U78C | 0.38 |
| A15G A18U U25C U31C U72C | 0.16 |
| C14U A15G A35U U41A U43A A45G | 0.04 |
| A15G A18G A56U U69G | 0.08 |
| A13U U41C A56G A64U | 0.36 |
| C14U U48C U72A | 0.3 |
| A13U C29G A47G U49C G63A U74G | 0.12 |
| A15C U26G U66C | 0.35 |
| A15C C27U U69A | 0.17 |
| C14U C23U U43A A45G U60C U67A U72A | 0.05 |
| A13U G33U A47G | 0.09 |
| A15G A35U A65G U67C | 0.08 |
| A15C A65G U69A U72A | 0.14 |
| A15G A35G C39U A77U | 0.47 |

| Variant | self-cleavage |
| --- | --- |
| A13U U54C A64G U67C U72A U74C U78A | 0.07 |
| A15C A47U A64G | 0.19 |
| C14U A20G U41C C81A | 1.04 |
| A13U G33A A64G U66C | 0.13 |
| A13U A28U U69C U74C | 0.38 |
| A13U C23U U25C | 0.33 |
| A15C U49C U58A U67C | 0.14 |
| C14U A28G U43C A65C U76C C79U | 0.05 |
| C14A U25C U31A A45G | 0.08 |
| A15C U25C A35U U41C A47G A77U | 0.03 |
| A13U C62A A65G | 0.19 |
| A15G A18G G46U C50A A75C | 0.32 |
| A13U U51C U58C U60A | 0.12 |
| A13U U49C U54C U67C | 0.13 |
| A15G A18U U51A | 0.39 |
| A15G A18G G30C U78C | 0.14 |
| A15C U31C U78C | 0.63 |
| C14A A21C U25C | 0.04 |
| C14A A20G A45G U58C G61C | 0.04 |
| A15C A21G A28G U31C U66C | 0.11 |
